± gives the standard deviation of the averaged measurements. The list shows a part of the results.

This is an account of results in the supplement of paper PMC11417369.

This test concerns PfAP2-EXP AP2 domain (GST-tagged). The test can be described thus: gcPBM binding intensity (ln(normalized median fluorescence intensity)); higher = stronger DNA binding. In short, it runs like this: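 Binding intensity is the highest Masliner-normalised natural-log median intensity over replicate spots in either probe orientation. To obtain it, GST-tagged P. falciparum DNA-binding domains made in E. coli were incubated for 1 h on an Agilent 4 × 180k array of primer-extended double-stranded 36-bp intergenic genomic probes plus negative controls. Detection used Alexa488 anti-GST antibody with scanning at 488 nm.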
Take “GTACAAAAATAAATTGCACACATTTTAATAAAAAAA [CACACA_site2130]”: the “gcPBM binding intensity (ln)” value was 8.35 ± 0.15.
“AGATTTAAATATCATACACACTTTATCTATAATACA [CACACA_site6581]”: the “gcPBM binding intensity (ln)” value stood at 8.32 ± 0.4.
The value for “TATATTTATTTATATACACACATATTTATAAATATA [CACACA_site7047]” was 8.45 ± 0.41.
As for “TAGTTGTTTATAACACGTTGACAGAAATGTTATGTA [GTGCAC_negctrl_site624]”, the “gcPBM binding intensity (ln)” value worked out at 8.46 ± 0.38.
The value for “CAAAATTGACATGACGCACACAAGTGTAGATATTTT [CACACA_site1250]” was 8.57 ± 0.4; that for “TATAAATAATGTTAAACACACATACCGATATATAAC [CACACA_site7306]” was 8.65 ± 0.49; that for “AAGCATTTCCATGGTGGTACTATACAAATAATAATT [XGTACX_site6193]” was 8.61 ± 0.38.
For the sequence “TATTCGTGCAATAATGGTACACTTATAAATTATTCA [XGTACX_site1430]”, the “gcPBM binding intensity (ln)” value turned out to be 8.86 ± 0.28.
Turning to “TATTAAACTAAATGTAGTACATACACAAACGTAATC [XGTACX_site4905]”, the “gcPBM binding intensity (ln)” value was 8.66 ± 0.35.
Regarding “AAAAAAATTTGTATCACACACGTATTATAAAAAAAT [CACACA_site4182]”, the “gcPBM binding intensity (ln)” value was found to be 8.49 ± 0.41.
The value for “ATTTTTTTTTTTAAATGTACATAATATATATATAAT [XGTACX_site2686]” was 8.6 ± 0.41.
The value for “TCTCTCTTATAAAATACACACGAACAATCATATTAT [CACACA_site8065]” was 8.54 ± 0.4.
In the case of “CGAACATTATAAATGTCATTTTTTCCAACTTGATCT [GTGCAC_negctrl_site501]”, the “gcPBM binding intensity (ln)” value came out at 8.3 ± 0.37.
The value for “TTCTTTTTTCTTTATGGTACGTGTAATATATATCAA [XGTACX_site7960]” was 8.9 ± 0.31; that for “TACATATTTTTTATGTGTACATATTTTTTATGTGTG [XGTACX_site444]” was 8.32 ± 0.26; that for “CCCAATAATTAAACAACACACATATATATATGTAAT [CACACA_site3084]” was 9.19 ± 0.64.
To “ATAAAATACAGATAAACACACATATAAACACCCATA [CACACA_site5381]” belongs 8.95 ± 0.4.
To “CTTTATTTTTTATACACACACAATATGTATAAATAT [CACACA_site7638]” belongs 8.62 ± 0.37; to “TTTATAAAATTATTTGCATGTAACAATTATAAATTG [TGCATGCA_site1026]”, 8.71 ± 0.34.
Take “TTTTTTTTTCTTTCTCTTTAAATATTAATTAAAAAA [GTGCAC_negctrl_site90]”: the “gcPBM binding intensity (ln)” value stood at 8.38 ± 0.49.
To “AATGTGAAATATAAATGTACATAAATATATATATAT [XGTACX_site8710]” belongs 9.86 ± 0.17; to “AAAATATAAATATATTGTACTGTTATATAATAAAAT [XGTACX_site2132]”, 8.21 ± 0.33; to “TAACTATCATGTATTACACACAATATTTATTATAGA [CACACA_site7301]”, 8.32 ± 0.39.
The value for “TAAAAAAAAATAAATACATGCATATAATACATTATA [TGCATGCA_site518]” was 8.6 ± 0.2.
To “TAATGAGGAAAAAGTGTGTTAAGATTTTATAATTTA [GTGCAC_negctrl_site608]” belongs 8.15 ± 0.24.
In the case of “TGAACATGTTAAAATAAACACACAGCTAAGGTTTTT [CACACA_site7934]”, the “gcPBM binding intensity (ln)” value amounted to 8.39 ± 0.48.
In the case of “TATCATATAAATACATGTACATATTTGGAAAATAAT [XGTACX_site5373]”, the “gcPBM binding intensity (ln)” value was found to be 8.81 ± 0.38.
The value for “ATATATATATTAACAATACACACGTGTATACCTTAT [CACACA_site2217]” was 9.39 ± 0.16; that for “ATGTTTTGTAAAATGATTAAATATTAAGATTCAATA [CACACA_negctrl_site1743]” was 8.1 ± 0.49; that for “CATCATAGCATTCCTCGTACAAATATAAACATATCA [XGTACX_site2711]” was 8.69 ± 0.39.
To “TAGTAAATAACAAAAGGAAAAATTAATGAGGCAAAA [TGCATGCA_negctrl_site526]” belongs 8.78 ± 0.46; to “CATATACACGAACACACACACATATATATATATATA [CACACA_site4437]”, 10.3 ± 0.39.
As to “CTTAGAGTATTTAAATGTACACGTTTGTATATGTAT [XGTACX_site1767]”, the “gcPBM binding intensity (ln)” value worked out at 8.63 ± 0.47.
The value for “ATAAATAAATACATATGTACATATATATATATATAT [XGTACX_site7145]” was 10.2 ± 0.35; that for “ATATATATATTAAGGGGTACGTAAAAAATTGGGAAG [XGTACX_site7322]” was 9.38 ± 0.18; that for “TCAGTTAATGTATATGTACACACGGGGTGTATATAT [CACACA_site9103]” was 8.71 ± 0.49.
To “AAATTATATCCCCTTTGTACTTACAGATCTTTATAC [XGTACX_site8163]” belongs 8.77 ± 0.51; to “ACAAAAAAAAAAAAAAAAAGAAGAATATATCTATAT [CACACA_negctrl_site759]”, 8.24 ± 0.47.
To “TATCATACAATATTCACACAAATAAATTGACATATT [CACACA_site5891]” belongs 8.31 ± 0.31; to “AAAAAGGAAATAATAACACACATTAGTAATTATAAA [CACACA_site7573]”, 8.48 ± 0.38; to “CACAGACACGGACACACACACACAAAAAAAAAAAGA [CACACA_site4436]”, 8.44 ± 0.57.
“TATTTTCTTTAATTAATTATTGGTCTGAATGGGGTT [CACACA_negctrl_site418]”: the “gcPBM binding intensity (ln)” value was determined as 8.7 ± 0.75.
The value for “TATTAAAAAAATATTTGTACTTAAAATTTATTATAT [XGTACX_site1467]” was 8.07 ± 0.3; that for “AATTAATAAATATTATATGTTAATATTTTTTTTGTT [CACACA_negctrl_site1692]” was 7.99 ± 0.4; that for “AGAGGAGTAAAACAAAACAAAGAGAAATAAACACAC [XGTACX_negctrl_site386]” was 9.35 ± 0.47.
The value for “TTTCATATCTTGTCAAGTACATATTTTTATTTTCTT [XGTACX_site2160]” was 8.63 ± 0.41; that for “AAAAAATATAATAATTGTACACATGCACACACAAAT [XGTACX_site1563]” was 9.06 ± 0.18.
With “ACTTAATATCGGTACACACACAAGATAAGAATTATG [CACACA_site894]”, the “gcPBM binding intensity (ln)” value turned out to be 8.74 ± 0.4.
Regarding “TTTTTATAAAAATGAACACACACATATATATATATA [CACACA_site9160]”, the “gcPBM binding intensity (ln)” value was found to be 10.2 ± 0.4.
The value for “AATAACACTATTTAACGTACAAAAAAAAAAAAGAAA [XGTACX_site3721]” was 8.67 ± 0.31; that for “ATATATCTTTATATAGTGCATTAAATATGTTGTAAT [GTGCAC_site9953]” was 8.53 ± 0.057; that for “ATACTAAAAATGAATGTACACATATATATATATATA [TGCATGCA_negctrl_site209]” was 10.2 ± 0.33.
The value for “AAAAAAAATAAAAATAGTACCCAAAAAATTATGAAT [XGTACX_site6641]” was 8.61 ± 0.39; that for “TATAATAAAATATTTTGTACGTATATTTTAATATTT [XGTACX_site2582]” was 8.32 ± 0.45.
As to “TTTTTAAAAAATAAGAAAAAATAAATATATTACAAA [XGTACX_negctrl_site191]”, the “gcPBM binding intensity (ln)” value turned out to be 8.46 ± 0.46.
Regarding “ATGTTACACAGACACACACACATAAAAAAACAAAAA [CACACA_site7516]”, the “gcPBM binding intensity (ln)” value is 8.62 ± 0.63.
The value for “CAGCATGGTATACCTATAAAATATATATACTAACAT [TGCATGCA_negctrl_site51]” was 9.01 ± 0.49.
To “CACATACATATATATACACACAAATATATATACGCA [CACACA_site791]” belongs 8.47 ± 0.54.
For the sequence “GGCATATATACATATGGTACACATTTATTAATACCG [XGTACX_site2710]”, the “gcPBM binding intensity (ln)” value was 8.54 ± 0.38.
Turning to “GATGTGTATATTAAATGTACGAACAGTTGAGGCGAA [XGTACX_site7853]”, the “gcPBM binding intensity (ln)” value came out at 9.15 ± 0.38.
On to “AGGATATAAAGTTGTGCATGTCAAGTGCACCGTATT [TGCATGCA_site451]”, for which the “gcPBM binding intensity (ln)” value is 9.1.
The value for “AGAAAAATCTAAATTCGTACATAACGTTTAAACATA [XGTACX_site2511]” was 8.36 ± 0.43; that for “GTTTTATTCCATTATTGTACTTAATATAAAGAAACT [XGTACX_site3054]” was 8.8 ± 0.45.
The value for “ATAATAATATGTGGGTGTACATATACACATATATAT [XGTACX_site4356]” was 8.91 ± 0.33; that for “ATAAATTGAAGTAAATTTGACCTTTTTTTTTTTTTT [GTGCAC_negctrl_site354]” was 8.31 ± 0.27.
Consider “AGAACATGCAAACATGCACACAGAAAAAAAAAATAT [CACACA_site8442]”, for which the “gcPBM binding intensity (ln)” value stood at 8.97 ± 0.3.
To “TTTATTGATAATATATATATATATATATATATATAT [GTGCAC_negctrl_site552]” belongs 10.2 ± 0.48; to “AATATCTTAGTGGATACACACATATAAATGGGTATT [CACACA_site4426]”, 8.34 ± 0.35; to “AAAAAATTAAAAAAAAAAAAATCATGAAAAAAACAA [CACACA_negctrl_site1673]”, 8.41 ± 0.57.
For “TCATATGTTAAACACACACACACACCGAAAAAAACA [CACACA_site9067]”, the “gcPBM binding intensity (ln)” value worked out at 8.78 ± 0.54.
Consider “CTTATATTAAGTATTACACACATATATATAAATGCA [CACACA_site4581]”, for which the “gcPBM binding intensity (ln)” value worked out at 8.6 ± 0.61.
The value for “CCTAAATAAATGGACACACACATATATATATATATA [CACACA_site1439]” was 10.2 ± 0.32; that for “TTTTACGTAATATTTATACACACGAACCTTATTAAT [CACACA_site2300]” was 8.58 ± 0.4.
The value for “TATATATATATAAGAAGTACAGAAAATTAGAAAAAA [XGTACX_site8773]” was 9.82 ± 0.32.
In the case of “TAGAAATAAGAAAAATGTACATATAATATTGAAAGT [XGTACX_site3043]”, the “gcPBM binding intensity (ln)” value was 9.17 ± 0.35.
The value for “AGTCTATAGTAATTTACACACAAAAAAATATCAGGA [CACACA_site7620]” was 8.65 ± 0.44; that for “AGTAGTCTGGAGAAAAGTACATAGTATCTGGTAGCT [XGTACX_site2027]” was 8.72 ± 0.7; that for “GCACATATGAATATAATACACACTTGTATTATTAAT [CACACA_site1841]” was 8.39 ± 0.33.
To “ATTTTATATACAAAATGTACATATTTATTATATATG [XGTACX_site6732]” belongs 8.65 ± 0.64; to “AAGGATACGCAAAAATGTACAAAATGCTTATAAATA [XGTACX_site984]”, 8.71 ± 0.25; to “GGAGCTATCTCCTGCACACACAATTTTTTTTTTTTT [CACACA_site2240]”, 8.41 ± 0.45.
Consider “ATTAAAATCATATACACACCCATATATATATATATA [CACACA_site5050]”, for which the “gcPBM binding intensity (ln)” value amounted to 10.1 ± 0.34.
The value for “GAATAAATACCGGTGTGTACTTAAATCATTCACGAA [XGTACX_site3174]” was 8.7 ± 0.36; that for “ATACATATCTACCTATGTACATAATACAACAAAGAT [XGTACX_site323]” was 8.86 ± 0.42.
To “TGAGTATATAAATACACACACATATATATATTTTAA [CACACA_site5130]” belongs 8.26 ± 0.41.
To “TTTTATTTTTAAGGATGTACTCAATTGTTTATATAC [XGTACX_site3965]” belongs 8.6 ± 0.36; to “TTTTTTTTTAATAAAATTATAATAAATATGAAATTA [XGTACX_negctrl_site369]”, 7.96 ± 0.52.
